Measurements: patent publication US5124150A

Test system: human T-lymphotropic virus type III B (HTLV-IIIB)
Assay: HIV-induced cell damage in MT-4 cells, trypan blue dye exclusion
Conditions: multiplicity of infection 0.002, concentration higher than 25 μg/ml
Experimental: Anti-HIV activity was evaluated using the human T-lymphotropic virus type III B (HTLV-IIIB) and HTLV-type I carrying, MT-4 cells. The number of viable MT-4 cells infected with HIV at a multiplicity of infection of 0.002, decreased during the cultivation and almost all cells died within 6 days after infection as determined by a trypan blue dye exclusion method (Antimicrob. Agents and Chemother. 30 933-37, 1986).

## C/C1=C\C=C\C2(C)C=C(CO[C@H]3O[C@H](CO)[C@H](O)[C@H](O)[C@H]3O)C(C)CC23OC(O)C(C3=O)C(O)/C=C/C2(C)C=C(C=O)C(C)CC23OC(O)C(C3=O)C(O)/C(C)=C/C=C/C2C=C(CO[C@H]3O[C@H](CO)[C@H](O)[C@H](O)[C@H]3O)C(C)CC23OC(O)C(C3=O)C(O)/C=C/C2(C)C=C(C=O)C(C)CC23OC(O)C(C3=O)C1O (stereo partly shown)
  cell damage induced by HIV: significantly inhibited
